Test results reported in US20180186871A1.

Tests used:
[1] = molecular target: T1, murine IL-11 (mouse) (UniProt P47873); assay: ELISA binding signal
T1 sequence (looked up): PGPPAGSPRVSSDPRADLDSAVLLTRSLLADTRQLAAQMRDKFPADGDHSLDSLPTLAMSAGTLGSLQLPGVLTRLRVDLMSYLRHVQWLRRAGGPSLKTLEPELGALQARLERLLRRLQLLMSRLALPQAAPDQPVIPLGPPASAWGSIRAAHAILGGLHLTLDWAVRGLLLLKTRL

[2] = molecular target: human IL-11 (human) (UniProt P20809); assay: ELISA binding signal

- mIL11 - average signal [1]: 0.323
- hIL11 - average signal [2]: 0.373
B1: YU112-E08 (scFv)
scFv: VTLKESGGGVVQPGRSLRLSCAASGFTFSSYGMHWVRQAPGKGLEWVAVISYDGSNKYYADSVKGRFTISRDNSKNTLYLQMNSLRAEDTAVYYCAKGGKSYYGFDYWGQGTLVTVSSGSASAPKLEEGEFSEARV[no letters for about 100 residues]TWTFGQGTKVEIK
